Laboratory results taken from ChEMBL document CHEMBL1157539, “Thousands of chemical starting points for antimalarial lead identification” (Nature, 2010).
In all, about 13,000 compounds were measured (“IFI”: median about 4, highest 2% from about 17 on). The list shows a part of the results.

Assay: GSK_TCMDC: Inhibition Frequency Index (IFI). The number of non-kinase HTS assays where a compound showed > 50 % inhibition, expressed as a percentage of the number of such assays in which the compound was tested (-0 is zero)
Format: functional

| Compound | IFI |
| --- | --- |
| COc1ccc(-c2cc(C(F)(F)F)n3ncc(C(=O)Nc4cc(C)ccc4O)c3n2)cc1OC | 1.44% |
| CCCCN(Cc1cc(Cl)c(OCC)c(OC)c1)c1ccc(C(O)(C(F)(F)F)C(F)(F)F)cc1 | 6.38% |
| OCCN1CCN(Cc2cccc(-c3ccc(-c4nc5cc(C(F)(F)F)ccc5[nH]4)cc3)c2)CC1 | 6.8% |
| CC(=O)N(Cc1nc(-c2cc(C(F)(F)F)cc(C(F)(F)F)c2)cs1)c1c(C)cccc1C | 0.69% |
| Cc1nc2nc(N)nc(N)c2c(C)c1Cc1ccc(C(N)=O)cc1 | 0.73% |
| COc1ccc(-c2cnc3ccc(NCc4ccc(F)cc4)nn23)cc1OC | 7.81% |
| COc1cccc2cc(C(=O)N[C@@H](CC(C)C)C(=O)Nc3cc(F)ccc3Br)oc12 | 1.79% |
| O=C(Nc1ccc(Cl)cc1)OCCn1nnnc1C(c1ccc(Cl)cc1)N1CCOCC1 (stereo unspecified) | 1.46% |
| Cc1ccc(S(=O)(=O)NC2CCN(c3ccnc4cc(Cl)ccc34)C2)cc1 (stereo unspecified) | 4.55% |
| OC(CNCc1ccco1)Cn1c2ccc(Br)cc2c2cc(Br)ccc21 (stereo unspecified) | 4.26% |
| O=C(Nc1cccc(-c2nn3ccccc3c2-c2ccnc(Nc3ccc(-c4cc[nH]n4)cc3)n2)c1)c1c(F)cccc1F | 7.81% |
| COc1ccc2nccc([C@@H](O)CN3CCC(NC(=O)C(c4cc5ccccc5s4)N4CC(C)OC(C)C4)CC3)c2c1 (stereo partly specified) | -0% |
| CCN(CC)CCCN(C(=O)c1cc2c(C)nn(-c3ccccc3)c2s1)c1nc(-c2ccc(OC)cc2)cs1 | 3.41% |
| Oc1ccc(CCNc2nc(NCCCOc3cccc(-c4ccccc4)c3)nc(N3CCNCC3)n2)cc1 | 18.8% |
| CN(C)Cc1ccc2cc(NC(=O)c3ccc(-c4ccc(Cl)cc4)cc3)ccc2c1 | 6.45% |
| O=C(Nc1ccc2c(c1)CCC2)c1ccc(CN2CCCN(Cc3cccc(O)c3)CC2)cc1 | 10.3% |
| COc1ccc(-c2ccc(CNCc3ccc(F)cc3)cc2)cc1S(=O)(=O)NCCN1CCCC1 | 7% |
| O=C(NC1CCN(Cc2ccc3c(c2)OCCO3)CC1)c1ccc(-c2cccc(C(F)(F)F)c2)s1 | 22% |
| CCCCCN1C(=O)N(c2ccc(Cl)c(Cl)c2)C(N(O)C(=O)Nc2ccc(Cl)c(Cl)c2)C1(C)C (stereo unspecified) | 6.06% |
| O=C(/C=C/c1ccc(Cl)c(Cl)c1)NCCCCCN1CCCN(C(=O)Nc2ccc(F)c(Cl)c2)CC1 | 6.04% |
| Nc1ncc(-c2ccc3[nH]ccc3c2)c2ccc(-c3ccncc3)cc12 | 9.09% |
| O=C(NCCCCN1CCC(c2ccc(OC(F)(F)F)cc2)CC1)c1ccc(NC(=O)c2ccc(Cl)cc2)cc1 | 1.52% |
| COc1cccc(Nc2nnc(SCC(=O)NNC(=O)c3ccccn3)s2)c1 | 4.76% |

| Compound | IFI |
| --- | --- |
| Oc1ccccc1CN1CCC2(CCCN(Cc3ccccc3F)C2)C1 (stereo unspecified) | 4.65% |
| CCCCCC(=O)N1CCOC(CCN2CCc3c(c4ccccc4n3C)C2)(c2ccc(Cl)c(Cl)c2)C1 (stereo unspecified) | 3.57% |
| Clc1ccc(CNCC2CCN(CC3CCCCC3)CC2)cc1Cl | 0.69% |
| COc1ccc(Nc2cc(C)nc(Nc3ccc(NC(C)=O)cc3)n2)cc1 | 5.88% |
| CN(C)CCOc1ccc(NC(=O)NC(C)(C)c2nc(-c3ccc(Cl)c(O)c3)c(-c3ccncc3)[nH]2)cc1 | 2.21% |
| N#Cc1ccc2c(c1)CCN(CCC1CCC(NC(=O)c3cc4cccc([N+](=O)[O-])c4[nH]3)CC1)C2 (stereo unspecified) | -0% |
| Cc1ccc(NC(=O)c2ccc3nccnc3c2)cc1OC1CCN(Cc2ccc(F)cc2)CC1 | 1.64% |
| COc1cccc(CNC(=O)c2cccc(-c3cccc(CN4CCC(N5CCCC5)CC4)c3)n2)c1 | 9.8% |
| COc1ccc(-c2cccc(NC(=O)c3cccc(C#N)c3)c2)cc1CN1CCCC1 | 4% |
| O=S(=O)(c1ccc(OCc2ccc(Cl)cc2)cc1)c1cc2c(cc1O)CCN(C1CCC1)CC2 | 7.52% |
| CC(C)(C)c1ccc(-c2nnc(N)nc2N)cc1 | 0.78% |
| COc1cccc(CCNCc2ccc(-c3cccc(CNC4CCCC4)c3)cc2)c1 | 2.78% |
| Cc1[nH]c(C)c(-c2ccc(-c3cccc(Cl)c3)nc2)c(=O)c1Br | 1.82% |
| O=C(Nc1ccc(Br)cc1)c1cc(Br)ccc1NS(=O)(=O)c1ccc(C(F)(F)F)cc1 | 25% |
| Cc1cc(C)c(NC(=O)N[C@H]2CCN(CCCCCNC(=O)/C=C/c3ccc(Cl)c(Cl)c3)C2)c(C)c1 | 2.08% |
| Cc1nc2nc(N)nc(N)c2c(C)c1Cc1ccccc1Br | 2.26% |
| CN1C(C)(C)CC(NC(=O)c2ccc(-c3nc4cc(Cl)ccc4[nH]3)cc2)CC1(C)C | 0.71% |
| O=C(/C=C/c1ccc(Cl)c(Cl)c1)NCCCCCN1CCC(CCCNC(=O)Nc2ccc(C(F)(F)F)cc2)CC1 | 8.57% |
| CCC(Cc1ccccc1)c1cc(O)c(Cc2ccc(-c3ccccc3)cc2)c(=O)o1 (stereo unspecified) | 4.38% |
| CN1CCN(c2cc3c(cc2Cl)CCN3C(=O)Cc2ccc(NC(=O)Nc3cccc4ccccc34)cc2)CC1 | 8.45% |
| COc1ccc(C=C2SC(=O)N=C2Nc2ccccc2)c(OC)c1 | 4.11% |
| Cc1cc(C2CCN(CCCCNC(=O)c3ccc(-c4ccc(C#N)cc4)cc3)CC2)c(C)cc1O | 3.67% |
| Cn1cncc1CNCc1ccc(-c2cccc(-c3nc4ccccc4[nH]3)c2)cc1 | 2.91% |

| Compound | IFI |
| --- | --- |
| O=C(N[C@H]1CCN(Cc2ccc(OCCCN3CCCCC3)cc2)C1)c1ccc2ccccc2c1 | 5.48% |
| CCc1ccc(CN2CCC(NC(=O)c3ccc(-c4ccc(N(C)C)cc4)s3)CC2)cc1 | 12.3% |
| CCc1cn(CCc2ccccc2)c2ccc(C(=O)N[C@@H](Cc3ccccc3)[C@H](O)CNC(C)(C)CCCC(C)C)cc12 | 8.7% |
| COc1ccc2c(OC)c(CNCCCCCCNCc3ccc4cc(OC)ccc4c3OC)ccc2c1 | 11.3% |
| O=C(CNCC1CCCCC1)Nc1cc(C(F)(F)F)ccc1Cl | 4.23% |
| OCC(c1ccccc1)n1c(COc2ccc(Cl)cc2)nc2c(OCCCN3CCCCC3)cccc21 (stereo unspecified) | 3.67% |
| O=C(NC1CCCCN(Cc2ccccc2O)C1)c1cccc(C(F)(F)F)c1 (stereo unspecified) | 2.05% |
| O=C(Nc1ccc2c(c1)CN(Cc1ccc(N3CCCC3)o1)CCC2)c1ccoc1 | 2.5% |
| CC(C)CN1C(=O)C(c2ccc(F)c(F)c2)=C(O)C1c1ccccc1 (stereo unspecified) | 0.69% |
| CC(=O)Nc1cccc(Nc2nccc(Nc3ccc(Oc4ccccc4)cc3)n2)c1 | 4.96% |
| CN(C)CCNC(=O)N1CCCN(c2ncnc3cc(-c4ccc(Cl)cc4)sc23)CC1 | 7.27% |
| O=C(NCCCCN1CCC(c2ccc3c(c2OCC2CC2)CCCC3)CC1)c1ccc(NC(=O)c2ccc(Cl)cc2)cc1 | 5.07% |
| COc1ccc(C2CC(c3cccs3)=NN2C(=O)CNc2cccc(C#N)c2)cc1OC (stereo unspecified) | -0% |
| CCn1cc(-c2nc(-c3cc(OC)cc(OC)c3)no2)c(=O)c2ccccc21 | 4.35% |
| CCCCc1ccc(-c2ccc3[nH]c(C)c(Br)c(=O)c3c2)cc1 | 0.89% |
| O=C(/C=C/c1ccc(Cl)c(Cl)c1)NCCCCCN1CCC(NC(=O)Nc2ccc(Oc3ccccc3)cc2)C1 (stereo unspecified) | 11.3% |
| Cc1nc(Nc2ccc(F)cc2)nc(N2CCc3ccccc3[C@@H]2C)c1C | 3.7% |
| COc1ccc(-n2nc(C)c3c2NC(=O)CC3c2ccccc2OCc2ccccc2F)cc1 (stereo unspecified) | 5.17% |
| Cc1cc(O)c(-c2ccc(Oc3ccc(F)cc3)cc2)c(C)n1 | -0% |
| O=C(/C=C/c1ccc(Cl)c(Cl)c1)NCCCCCN1CCC(c2c[nH]c3cc(O)ccc23)CC1 | 4.96% |
| C=CCc1cc(Cc2cnc(N)nc2N)c2ccc(C)nc2c1OC | 3.01% |
| CCC(C)CNC(=O)CN1CN(c2ccccc2)C2(CCN(C(=O)c3ccc(Br)cc3)CC2)C1=O (stereo unspecified) | 3.33% |
| Cc1ccc(O)cc1Nc1ccnc2cc(-c3ccncc3)ccc12 | 6.42% |

| Compound | IFI |
| --- | --- |
| CN1CCN(c2ccc(-c3cc(-c4ccncc4)c(-c4ccc(Cl)c(O)c4)o3)cc2)CC1 | 9.09% |
| Cc1ccccc1C1CCN(C2CCC(NC(=O)C3=Cc4cc(Cl)ccc4OC3)CC2)CC1 (stereo unspecified) | 9.84% |
| Cc1cc(NC(=O)NCCN2CCC(NS(=O)(=O)c3ccccc3F)CC2)c2ccccc2n1 | 0.88% |
| COc1ccc2c(N/N=C/c3ccc([N+](=O)[O-])cc3)ccnc2c1 | 1.44% |
| CNCCNCc1cccc(-c2ccc(-c3nc4cccc(C)c4[nH]3)cc2)c1 | 9% |
| Cc1cc2nc(-c3ccc(SCC(=O)Nc4ccc5c(c4)OCCO5)nc3)[nH]c2cc1C | 2.5% |
| CC(C)C[C@@H](C(=O)N[C@H](C(=O)Nc1nccs1)C(C)(C)C)[C@H](CCC(F)(F)F)N(O)C=O | 1.46% |
| C=CCc1cc(Br)ccc1OCCCON1C(N)=NC(N)=NC1(C)C | 6.72% |
| COc1cccc(CNC(=O)c2ccnc(-c3cccc(CN(C)C4CCN(C)CC4)c3)c2)c1 | -0% |
| CN1CCC(c2csc3ccc(NC(=O)Nc4ccc(-c5ccncc5)c5ccccc45)cc23)CC1 | 4.96% |
| O=C(NC1CCN(Cc2ccccc2)CC1)c1cc(-c2ccncc2)c(-c2ccc(Cl)c(O)c2)o1 | 1.52% |
| Cc1cc2ncn(-c3nccc(NCc4ccc(F)cc4)n3)c2cc1C | 0.78% |
| CCCC1N=C(N)N=C(N)N1c1ccccc1 (stereo unspecified) | 0% |
| OC1(Cc2ccccc2)CCN(Cc2cccc(-c3c[nH]c4nc(NC5CCCC5)ncc34)c2)CC1 | 12.5% |
| N#Cc1ccc(-c2ccc(C(=O)NCCCCN3CCC(c4ccncc4)CC3)cc2)cc1 | 6.77% |
| O=[N+]([O-])c1cnc(Nc2ccccc2O)nc1Nc1ccccc1O | 19.2% |
| CCCCCCCc1c(C)nc2c(OC)cccc2c1O | 0.71% |
| Cc1cc(OC(C)C(=O)N2CCc3ccccc32)ccc1Cl (stereo unspecified) | 1.71% |
| COc1ccc2nccc([C@@H](O)CN3CCC(NC(=O)c4ccc(OC)c(N)c4)CC3)c2c1 | 1.48% |
| Cc1ccc(CCC(C)NCC(O)c2cccc(Cl)c2)cc1 (stereo unspecified) | 2.96% |
| N#Cc1ccc(CN2CCC(Oc3ccc(NC(=O)c4cccs4)cc3)C2)cc1 (stereo unspecified) | 1.56% |
| Cc1cccc(-c2nn(-c3ccccc3)c3[nH]c(=O)c(CN4CCSCC4)cc23)c1 | 1.82% |
